# Test results reported in the supplement of paper PMC8728848.
# Some of the results follow.
# B1: DrGRIFIN (Danio rerio), Q6DGJ1 (protein)
# chain: MTLRFEASCPDGLCPGWSVILKGETPPEASKFEINFLCDRDDRVAFHFNPRFTESDIICNSYMANRWGQEERCNHFPLGVEEPFQIEIYSDNDHFHVYIDKAKVMQYKHRVEDLKTITKLQVVNDVKISSLEITKKLFY
# Key:
# Experiment in all cases: glycan array binding signal (z-score within array); higher = stronger binding
# Conditions in all cases: glycan notation: IUPAC condensed, linker removed
# Fuc(a1-2)Gal = molecular target: Fuc(a1-2)Gal
# How it was run: (§1)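 Glycan array data came from 3228 arrays in the Consortium for Functional Glycomics database, and only arrays with an available protein sequence were kept. Glycan names were put into IUPAC-condensed notation, and columns mapping to the same glycan were averaged. The binding signal is a within-array Z-score, averaged across arrays of one protein sequence run at different concentrations or buffers and across linkers. A negative Z-score can be read as non-binding.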
# Fuc(a1-2)Gal(b1-3)GalNAc = molecular target: Fuc(a1-2)Gal(b1-3)GalNAc
# How it was run: as §1
# [1] = molecular target: Fuc(a1-2)Gal(b1-3)GalNAc(a1-3)[Fuc(a1-2)]Gal(b1-4)Glc
# How it was run: as §1
# [2] = molecular target: Fuc(a1-2)Gal(b1-3)GalNAc(a1-3)[Fuc(a1-2)]Gal(b1-4)GlcNAc
# How it was run: as §1
# [3] = molecular target: Fuc(a1-2)Gal(b1-3)GalNAc(b1-3)Gal
# How it was run: as §1
# [4] = molecular target: Fuc(a1-2)Gal(b1-3)GalNAc(b1-3)Gal(a1-4)Gal(b1-4)Glc
# How it was run: as §1
# [5] = molecular target: Fuc(a1-2)Gal(b1-3)GalNAc(b1-4)[Neu5Ac(a2-3)]Gal(b1-4)Glc
# How it was run: as §1
# Fuc(a1-2)Gal(b1-3)GlcNAc = molecular target: Fuc(a1-2)Gal(b1-3)GlcNAc
# How it was run: as §1
# [6] = molecular target: Fuc(a1-2)Gal(b1-3)GlcNAc(b1-2)Man(a1-3)[Fuc(a1-2)Gal(b1-3)GlcNAc(b1-2)Man(a1-6)]Man(b1-4)GlcNAc(b1-4)GlcNAc
# How it was run: as §1
# [7] = molecular target: Fuc(a1-2)Gal(b1-3)GlcNAc(b1-2)Man(a1-3)[Fuc(a1-2)Gal(b1-3)GlcNAc(b1-2)Man(a1-6)]Man(b1-4)GlcNAc(b1-4)[Fuc(a1-6)]GlcNAc
# How it was run: as §1
# [8] = molecular target: Fuc(a1-2)Gal(b1-3)GlcNAc(b1-3)Gal(b1-4)Glc
# How it was run: as §1
# [9] = molecular target: Fuc(a1-2)Gal(b1-3)GlcNAc(b1-3)GalNAc
# How it was run: as §1
# [10] = molecular target: Fuc(a1-2)Gal(b1-3)GlcNAc(b1-3)[Fuc(a1-2)Gal(b1-3)GlcNAc(b1-6)]GalNAc
# How it was run: as §1
# [11] = molecular target: Fuc(a1-2)Gal(b1-3)GlcNAc(b1-3)[Gal(b1-4)GlcNAc(b1-6)]Gal(b1-4)Glc
# How it was run: as §1
# [12] = molecular target: Fuc(a1-2)Gal(b1-3)GlcNAc(b1-3)[Neu5Ac(a2-6)Gal(b1-4)GlcNAc(b1-6)]Gal(b1-4)Glc
# How it was run: as §1
# [13] = molecular target: Fuc(a1-2)Gal(b1-3)GlcNAc6S
# How it was run: as §1
# [14] = molecular target: Fuc(a1-2)Gal(b1-3)[Fuc(a1-4)]GlcNAc
# How it was run: as §1
# [15] = molecular target: Fuc(a1-2)Gal(b1-3)[Fuc(a1-4)]GlcNAc(b1-2)Man(a1-3)[Fuc(a1-2)Gal(b1-3)[Fuc(a1-4)]GlcNAc(b1-2)Man(a1-3)]Man(b1-4)GlcNAc(b1-4)GlcNAc
# How it was run: as §1
# [16] = molecular target: Fuc(a1-2)Gal(b1-3)[Fuc(a1-4)]GlcNAc(b1-2)Man(a1-3)[Fuc(a1-2)Gal(b1-3)[Fuc(a1-4)]GlcNAc(b1-2)Man(a1-6)]Man(b1-4)GlcNAc(b1-4)[Fuc(a1-6)]GlcNAc(b1-4)[Fuc(a1-6)]GlcNAc
# How it was run: as §1
# [17] = molecular target: Fuc(a1-2)Gal(b1-3)[Fuc(a1-4)]GlcNAc(b1-3)[Fuc(a1-3)[Gal(b1-4)]GlcNAc(b1-6)]Gal(b1-4)Glc
# How it was run: as §1
# [18] = molecular target: Fuc(a1-2)Gal(b1-3)[Fuc(a1-4)]GlcNAc(b1-3)[Gal(b1-4)GlcNAc(b1-6)]Gal(b1-4)Glc
# How it was run: as §1
# Fuc(a1-2)Gal(b1-4)Glc = molecular target: Fuc(a1-2)Gal(b1-4)Glc
# How it was run: as §1
# Fuc(a1-2)Gal(b1-4)Glc6S = molecular target: Fuc(a1-2)Gal(b1-4)Glc6S
# How it was run: as §1
# Fuc(a1-2)Gal(b1-4)GlcNAc = molecular target: Fuc(a1-2)Gal(b1-4)GlcNAc
# How it was run: as §1
# [19] = molecular target: Fuc(a1-2)Gal(b1-4)GlcNAc(b1-2)Man
# How it was run: as §1
# [20] = molecular target: Fuc(a1-2)Gal(b1-4)GlcNAc(b1-2)Man(a1-3)[Fuc(a1-2)Gal(b1-4)GlcNAc(b1-2)Man(a1-6)]Man(b1-4)GlcNAc(b1-4)GlcNAc
# How it was run: as §1
# [21] = molecular target: Fuc(a1-2)Gal(b1-4)GlcNAc(b1-2)Man(a1-3)[Fuc(a1-2)Gal(b1-4)GlcNAc(b1-2)Man(a1-6)]Man(b1-4)GlcNAc(b1-4)[Fuc(a1-6)]GlcNAc
# How it was run: as §1
# [22] = molecular target: Fuc(a1-2)Gal(b1-4)GlcNAc(b1-2)[Fuc(a1-2)Gal(b1-4)GlcNAc(b1-4)]Man(a1-3)[Fuc(a1-2)Gal(b1-4)GlcNAc(b1-2)Man(a1-6)]Man(b1-4)GlcNAc(b1-4)GlcNAc
# How it was run: as §1
# [23] = molecular target: Fuc(a1-2)Gal(b1-4)GlcNAc(b1-3)Gal(b1-4)GlcNAc
# How it was run: as §1
# [24] = molecular target: Fuc(a1-2)Gal(b1-4)GlcNAc(b1-3)Gal(b1-4)GlcNAc(b1-2)Man(a1-3)[Fuc(a1-2)Gal(b1-4)GlcNAc(b1-3)Gal(b1-4)GlcNAc(b1-2)Man(a1-6)]Man(b1-4)GlcNAc(b1-4)GlcNAc
# How it was run: as §1
binder,measurement,setting,value
B1,glycan array binding signal (z-score),Fuc(a1-2)Gal,-0.212
same,glycan array binding signal (z-score),Fuc(a1-2)Gal(b1-3)GalNAc,-0.18
same,glycan array binding signal (z-score),[1],-0.088
same,glycan array binding signal (z-score),[2],-0.21
same,glycan array binding signal (z-score),[3],-0.216
same,glycan array binding signal (z-score),[4],-0.099
same,glycan array binding signal (z-score),[5],-0.2
same,glycan array binding signal (z-score),Fuc(a1-2)Gal(b1-3)GlcNAc,-0.16
same,glycan array binding signal (z-score),[6],-0.16
same,glycan array binding signal (z-score),[7],-0.196
same,glycan array binding signal (z-score),[8],-0.11
same,glycan array binding signal (z-score),[9],-0.134
same,glycan array binding signal (z-score),[10],0.002
same,glycan array binding signal (z-score),[11],-0.217
same,glycan array binding signal (z-score),[12],-0.195
same,glycan array binding signal (z-score),[13],-0.201
same,glycan array binding signal (z-score),[14],-0.218
same,glycan array binding signal (z-score),[15],-0.166
same,glycan array binding signal (z-score),[16],-0.165
same,glycan array binding signal (z-score),[17],-0.188
same,glycan array binding signal (z-score),[18],-0.128
same,glycan array binding signal (z-score),Fuc(a1-2)Gal(b1-4)Glc,-0.152
same,glycan array binding signal (z-score),Fuc(a1-2)Gal(b1-4)Glc6S,-0.101
same,glycan array binding signal (z-score),Fuc(a1-2)Gal(b1-4)GlcNAc,-0.121
same,glycan array binding signal (z-score),[19],-0.193
same,glycan array binding signal (z-score),[20],-0.103
same,glycan array binding signal (z-score),[21],-0.094
same,glycan array binding signal (z-score),[22],-0.158
same,glycan array binding signal (z-score),[23],-0.145
same,glycan array binding signal (z-score),[24],-0.016
